# Assay results from PubChem BioAssay (Tox21).
# Values joined by “and” are separate entries in the source; they are usually repeats but may differ in a detail not shown here. Identical values can stand only once. Inconclusive means that the source gave no clear call. Such entries were picked first, then a sample of the others. For part of these data: Potencies beside an inconclusive call are fits to weak or partial responses and may not hold up. A structure can be active in one record and inactive in another. Active and inactive are the calls of the source. Unless noted, calls follow the shape of the dose curve; as a rule, active = well fitted curve in the direction sought with a large enough effect in the repeat runs; inconclusive = weak or mixed curves; inactive = no such curve, though single readings can be large; an effect the other way counts as inactive or inconclusive.
# Assays:
# [1] = qHTS assay to identify small molecule agonists of H2AX (AID 1224845; active = well fitted activation curve with a large enough effect in the signal ratio in the repeat runs, not every such curve was filed as active; inconclusive = weak or mixed curves; the % refers to the signal ratio; also: potency is read from the fitted curve at half-maximal effect; as to activation (H2AX phosphorylation): % is scaled to controls: 0 for no effect and ±100 for the full control effect); details: CHO-K1 phospho-H2AX Ser139 HTRF, 3 h; activation (H2AX phosphorylation): at 154 µM (top of the series) unless noted
# Method in brief: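 Wild-type CHO-K1 cells, plated overnight, exposed 3hr at 37C to 15 concentrations (0.76% DMSO final). Lysed, then HTRF anti-pH2AX (S139) cryptate and anti-H2AX-d2 antibodies, 24 hr room temperature; 665/620 nm emission read.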
# [2] = qHTS RealTime-Glo MT Cell Viability Assay in HEK293 cells - 32 hour (AID 1224868); also: nearly all actives have a fitted effect of over 50% in size; also: potency is read from the fitted curve at half-maximal effect
# Method in brief: (§1)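 Quantitative high-throughput screen of the Tox21 10K library in HEK293: cells and RealTime-Glo reagents plated together, compound added at 5 h, luminescence monitored through 40 h at 37 C.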
# [3] = qHTS RealTime-Glo MT Cell Viability Assay in HEK293 cells - 16 hour (AID 1224872); also: nearly all actives have a fitted effect of over 50% in size; also: potency is read from the fitted curve at half-maximal effect
# Method in brief: as §1
# [4] = qHTS RealTime-Glo MT Cell Viability Assay in HEK293 cells - 40 hour (AID 1224874); details: RealTime-Glo luminescence; max response: stronger effect = lower value; also: nearly all actives have a fitted effect of over 50% in size; also: potency is read from the fitted curve at half-maximal effect; as to max response: % is scaled to controls: 0 for no effect and ±100 for the full control effect
# Method in brief: (§2)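 Viable HEK293 cells reduce a cell-permeant prosubstrate; the product diffuses out and is consumed by NanoLuc in the medium to give light. Compounds went in after a 5 h incubation and plates were read over the treatment course.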
# [5] = qHTS RealTime-Glo MT Cell Viability Assay in HepG2 cells - 24 hour (AID 1224867); also: nearly all actives have a fitted effect of over 50% in size; also: potency is read from the fitted curve at half-maximal effect
# Method in brief: (§3)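 Compound treatment began 5 h after plating HepG2 cells (600/well) with NanoLuc luciferase and prosubstrate. Plates stayed at 37 C for 40 h; luminescence was captured at six time points, 0 h through 40 h.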
# [6] = A CellTox Green Cytotoxicity Assay to monitor cytotoxicity in HEK293 cells - 40 hour (AID 1224871); also: nearly all actives have a fitted effect of over 45% in size; also: potency is read from the fitted curve at half-maximal effect
# Method in brief: (§4)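 Fluorescence intensity, read at 0, 8, 16, 24, 32 and 40 h of compound treatment, reflected dye binding to DNA of dead HEK293 cells; compounds (23 nL, DMSO) were added 5 h after plating cells with reagent.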
# [7] = A CellTox Green Cytotoxicity Assay to monitor cytotoxicity in HEK293 cells - 24 hour (AID 1224875); also: potency is read from the fitted curve at half-maximal effect; nearly all actives have a fitted effect of over 45% in size
# Method in brief: as §4
# [8] = A CellTox Green Cytotoxicity Assay to monitor cytotoxicity in HepG2 cells - 16 hour (AID 1224876); also: potency is read from the fitted curve at half-maximal effect; nearly all actives have a fitted effect of over 45% in size
# Method in brief: (§5)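 Using 1536-well format, dye-containing HepG2 suspension was seeded, allowed 5 h at 37 C/5% CO2, dosed by pintool with compounds, positive and negative controls, and imaged for fluorescence across 40 h.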
# [9] = A CellTox Green Cytotoxicity Assay to monitor cytotoxicity in HepG2 cells - 24 hour (AID 1224878); also: potency is read from the fitted curve at half-maximal effect; nearly all actives have a fitted effect of over 45% in size
# Method in brief: as §5
# [10] = A CellTox Green Cytotoxicity Assay to monitor cytotoxicity in HEK293 cells - 32 hour (AID 1224881); also: nearly all actives have a fitted effect of over 40% in size; also: potency is read from the fitted curve at half-maximal effect
# Method in brief: as §4
# [11] = A CellTox Green Cytotoxicity Assay to monitor cytotoxicity in HepG2 cells - 40 hour (AID 1224879); also: potency is read from the fitted curve at half-maximal effect; nearly all actives have a fitted effect of over 40% in size
# Method in brief: as §5
# [12] = qHTS RealTime-Glo MT Cell Viability Assay in HepG2 cells - 40 hour (AID 1224870)
# Method in brief: (§6)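 HepG2 cells (600/well) mixed with RealTime-Glo MT reagent, settled 5 h at 37 C/5% CO2 before compound addition. Nonlytic NanoLuc luminescence from viable-cell prosubstrate reduction read repeatedly during 40 h treatment at 37 C.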
# [13] = qHTS RealTime-Glo MT Cell Viability Assay in HepG2 cells - 8 hour (AID 1224873); also: nearly all actives have a fitted effect of over 55% in size; also: potency is read from the fitted curve at half-maximal effect
# Method in brief: as §6
# [14] = qHTS RealTime-Glo MT Cell Viability Assay in HepG2 cells - 32 hour (AID 1224877); also: potency is read from the fitted curve at half-maximal effect; nearly all actives have a fitted effect of over 55% in size
# Method in brief: as §3
# [15] = qHTS RealTime-Glo MT Cell Viability Assay in HEK293 cells - 0 hour (AID 1224880); also: nearly all actives have a fitted effect of over 45% in size; also: potency is read from the fitted curve at half-maximal effect
# Method in brief: as §2
# [16] = qHTS assay to identify small molecule agonists of the estrogen related receptor (ERR) signaling pathway from Tox21 library (AID 1224849; calls by dose curve; also: % is scaled to controls: 0 for no effect and ±100 for the full control effect; nearly all actives have a fitted effect of over 15% in size); details: ERR reporter cell line, ONE-Glo luciferase, 18 h
# Method in brief: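 Screening used an NTP-provided ERR luciferase cell line. Compounds in DMSO were added 6 h after seeding and left 18 h at 37 C before a 30 min ONE-Glo step and luminescence reading.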
# [17] = A CellTox Green Cytotoxicity Assay to monitor cytotoxicity in HEK293 cells - 0 hour (AID 1224869)
# Method in brief: as §4
# [18] = qHTS assay to identify small molecule antagonists of the estrogen related receptor (ERR) signaling pathway from Tox21 library (AID 1224848); also: nearly all actives have a fitted effect of over 50% in size; also: potency is read from the fitted curve at half-maximal effect
# Method in brief: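 Luminescent reporter read-out (ONE-Glo) from NTP's ERR cell line after 18 h treatment at 37 C with DMSO-dissolved Tox21 compounds; cells pre-plated 6 h beforehand at 2,000 per well.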
# Tags tell the direction and shape of the fitted curve or compound fluorescence and quenching.
compound,measurement,setting,value
CN(c1nccc(=O)[nH]1)C1CCN(c2nc3ccccc3n2Cc2ccc(F)cc2)CC1,activation (H2AX phosphorylation),[1],inconclusive: -11.9% [at 70.9 µM]
same,Potency,[2],"inconclusive: 23.9 µM [cytotoxic, single point]"
same,Potency,[3],"inconclusive: 23.9 µM [cytotoxic, single point]"
same,Potency,[4],"inconclusive: 26.8 µM [cytotoxic, single point]"
CC[N+](CC)(CCNC(=O)C(=O)NCC[N+](CC)(CC)Cc1ccccc1Cl)Cc1ccccc1Cl,Potency,[1],inactive
same,Potency,[5],inactive
Cc1occc1SSc1ccoc1C,Potency,[1],"inconclusive: 22.5 µM [fluorescent, partial curve, poor fit]"
same,Potency,[5],"inconclusive: 49 µM [falling, partial curve, poor fit]"
same,Potency,[6],active: 54.9 µM
same,Potency,[7],"inconclusive: 49 µM [activator, partial curve]"
same,Potency,[8],"inconclusive: 49 µM [activator, single point]"
same,Potency,[9],"inconclusive: 54.9 µM [activator, single point]"
same,Potency,[10],active: 54.9 µM
Oc1ccc(Cl)c2cccnc12,Potency,[1],"inconclusive: 6.95 µM [activator, full curve]"
same,Potency,[2],"inconclusive: 26.8 µM [cytotoxic, single point]"
same,Potency,[6],"inconclusive: 26.8 µM [activator, single point]"
same,Potency,[4],"inconclusive: 26.8 µM [cytotoxic, single point]"
same,Potency,[11],"inconclusive: 4.25 µM [activator, full curve, poor fit]"
CN(C)CCCN1c2ccccc2Sc2ccc(C(F)(F)F)cc21,Potency,[1],inconclusive: 61.9 µM [activator]
same,Potency,[5],"inconclusive: 26.8 µM [falling, single point]"
same,Potency,[12],"inconclusive: 26.8 µM [falling, single point]"
same,Potency,[3],active: 19 µM
same,Potency,[13],"inconclusive: 26.8 µM [falling, partial curve, poor fit]"
same,Potency,[4],active: 23.9 µM
same,Potency,[7],"inconclusive: 23.9 µM [activator, single point]"
same,Potency,[14],"inconclusive: 26.8 µM [cytotoxic, single point]"
same,Potency,[9],active: 23.9 µM
same,Potency,[15],"inconclusive: 16.9 µM [rising, partial curve]"
same,Potency,[10],active: 23.9 µM
Nc1ccc(Oc2ccc(N)c(N)c2)cc1,Potency,[1],inconclusive: 89.8 µM [partial curve]
same,Potency,[2],"inconclusive: 54.9 µM [cytotoxic, single point]"
same,Potency,[3],"inconclusive: 54.9 µM [cytotoxic, single point]"
same,Potency,[13],"inconclusive: 38.9 µM [falling, partial curve]"
same,Potency,[4],"inconclusive: 49 µM [cytotoxic, partial curve]"
same,Potency,[9],"inconclusive: 54.9 µM [activator, partial curve, poor fit]"
same,Potency,[11],"inconclusive: 54.9 µM [activator, partial curve, poor fit]"
CC(C)n1nc(-c2cc3cc(O)ccc3[nH]2)c2c(N)ncnc21,Potency,[1],"inconclusive: 49.2 µM [falling, partial curve]"
same,Potency,[5],"inconclusive: 13.4 µM [falling, partial curve, poor fit]"
same,Potency,[12],"inconclusive: 21.3 µM [falling, partial curve, poor fit]"
same,Potency,[6],"inconclusive: 4.25 µM [activator, full curve, poor fit]"
same,Potency,[4],active: 0.19 µM
same,Potency,[14],"inconclusive: 12 µM [cytotoxic, partial curve, poor fit]"
same,Potency,[9],"inconclusive: 26.8 µM [activator, single point]"
same,Potency,[10],inactive
CS(=O)(=O)c1ccc(-c2cn3ccccc3n2)cc1,Potency,[1],"inconclusive: 12.4 µM [falling, single point]"
same,"activity change, positive = activation",[16]; at 42.5 µM (top of the series),inconclusive: 14.8%
same,Potency,[5],"inconclusive: 26.8 µM [falling, partial curve, poor fit]"
same,Potency,[2],"inconclusive: 19 µM [cytotoxic, partial curve]"
same,Potency,[13],"inconclusive: 23.9 µM [falling, partial curve]"
same,Potency,[4],"inconclusive: 19 µM [cytotoxic, partial curve, poor fit]"
same,Potency,[9],"inconclusive: 30.1 µM [activator, partial curve, poor fit]"
same,Potency,[11],"inconclusive: 26.8 µM [activator, single point]"
Clc1ccc(Nc2nnc(Cc3ccncc3)c3ccccc23)cc1,activation (H2AX phosphorylation),[1],inconclusive: 6.6% [at 70.9 µM]
same,Potency,[2],active: 21.3 µM
same,Potency,[3],"inconclusive: 21.3 µM [cytotoxic, single point]"
Cn1c(N)nc2nc[nH]c2c1=O,Potency,[1],"inconclusive: 99.6 µM [activator, partial curve]"
same,Potency,[2],"inconclusive: 54.3 µM [cytotoxic, single point]"
same,Potency,[3],"inconclusive: 61 µM [cytotoxic, partial curve, poor fit]"
same,Potency,[4],"inconclusive: 54.3 µM [cytotoxic, single point]"
CCOC(=O)NNc1ccc(N(CC)CC(C)O)nn1 (stereo not given),Potency,[1],"inconclusive: 39.1 µM [rising, partial curve]"
same,"activity change, positive = activation",[16]; at 42.5 µM (top of the series),inactive: 0.457%
same,Potency,[15],inactive
C/C=C/C=C/C(=O)O,Potency,[1],inactive
same,Potency,[2],"inconclusive: 43.6 µM [rising, partial curve, poor fit]"
same,Potency,[12],"inconclusive: 1.74 µM [rising, partial curve, poor fit]"
same,Potency,[4],"inconclusive: 49 µM [rising, partial curve, poor fit]"
NCCc1ccc(O)c(O)c1,Potency,[1],"inconclusive: 45.1 µM [cytotoxic, partial curve] and inconclusive: 24.7 µM [cytotoxic, full curve]"
same,Potency,[2],inactive
same,Potency,[3],"inconclusive: 55.1 µM [cytotoxic, single point] and inactive"
CN1CCN(C2=Nc3cc(Cl)ccc3Nc3ccccc32)CC1,Potency,[1],inconclusive: 61.9 µM [activator]
same,Potency,[5],"inconclusive: 26.8 µM [falling, single point]"
same,Potency,[2],"inconclusive: 12 µM [cytotoxic, full curve]"
same,Potency,[12],"inconclusive: 26.8 µM [falling, single point]"
same,Potency,[6],inactive
same,Potency,[13],inactive
same,Potency,[4],"inconclusive: 15.1 µM [cytotoxic, partial curve]"
same,Potency,[14],"inconclusive: 26.8 µM [cytotoxic, single point]"
same,Potency,[9],active: 23.9 µM
same,Potency,[11],active: 23.9 µM
same,Potency,[15],"inconclusive: 23.9 µM [rising, partial curve, poor fit]"
Oc1ccc2c(c1)OCO2,Potency,[1],inconclusive: 63 µM [partial curve]
same,Potency,[5],inactive
same,max response,[4],inactive: -2.1%
Cc1cc(O)c(C)c(C)c1O,Potency,[1],inactive
same,Potency,[2],"inconclusive: 6.74 µM [rising, partial curve]"
same,Potency,[6],"inconclusive: 26.8 µM [activator, single point]"
same,Potency,[3],"inconclusive: 3.38 µM [rising, partial curve, poor fit]"
same,Potency,[4],"inconclusive: 26.8 µM [cytotoxic, single point]"
same,Potency,[7],"inconclusive: 26.8 µM [activator, single point]"
same,Potency,[10],"inconclusive: 26.8 µM [activator, single point]"
O=C1NC(=O)c2cccc3cccc1c23,activation (H2AX phosphorylation),[1],inconclusive: 11.5%
same,Potency,[2],inactive
O=C(CC(=O)c1ccccc1)c1ccccc1,activation (H2AX phosphorylation),[1],inconclusive: 9.37%
same,"activity change, positive = activation",[16]; at 92.4 µM (top of the series),active: 58.5%
same,Potency,[13],"inconclusive: 74.3 µM [falling, partial curve, poor fit]"
Clc1ccc2nsnc2c1NC1=NCCN1,Potency,[1],inactive
same,Potency,[2],inactive
CCN(CC)CCNC(=O)c1c(C)[nH]c(/C=C2\C(=O)Nc3ccc(F)cc32)c1C,Potency,[1],"inconclusive: 22 µM [falling, partial curve]"
same,Potency,[2],active: 10.7 µM
same,Potency,[17],"inconclusive: 21.3 µM [activator, partial curve]"
same,Potency,[12],active: 15.1 µM
same,Potency,[13],"inconclusive: 21.3 µM [falling, partial curve]"
same,Potency,[8],active: 21.3 µM
same,Potency,[9],active: 19 µM
same,Potency,[10],active: 23.9 µM
Nc1c2c(nc3ccccc13)CCCC2,Potency,[1],inactive
same,Potency,[18],active: 61.1 µM and active: 54.5 µM and inactive
same,Potency,[3],"inconclusive: 49 µM [cytotoxic, partial curve, poor fit]"
Nc1ccc(O)c([N+](=O)[O-])c1,Potency,[1],inconclusive: 44.5 µM [cytotoxic]
same,Potency,[2],"inconclusive: 19.5 µM [cytotoxic, full curve]"
same,Potency,[6],"inconclusive: 0.155 µM [activator, single point]"
same,Potency,[4],"inconclusive: 21.9 µM [cytotoxic, full curve]"
same,Potency,[15],"inconclusive: 49 µM [falling, partial curve, poor fit]"
C1CCC(C(CC2CCCCN2)C2CCCCC2)CC1 (stereo not given),Potency,[1],active: 6.95 µM
same,Potency,[5],active: 5.35 µM
same,Potency,[2],active: 10.7 µM
same,Potency,[12],active: 5.35 µM
same,Potency,[13],active: 21.3 µM
same,Potency,[14],active: 5.35 µM
same,Potency,[11],active: 5.35 µM
same,Potency,[15],"inconclusive: 21.3 µM [rising, partial curve]"
same,Potency,[10],active: 19 µM
CC(CNC1CCCCC1)OC(=O)c1ccccc1 (stereo not given),Potency,[1],inactive
same,"activity change, positive = activation",[16]; at 42.5 µM (top of the series),inconclusive: 11.2%
same,Potency,[3],inactive
O=C(Nc1ccc(S(=O)(=O)N2CCOCC2)cc1)c1cc(Cl)ccc1NS(=O)(=O)c1ccc(Cl)s1,Potency,[1],inactive
same,Potency,[5],"inconclusive: 26.8 µM [falling, partial curve, poor fit]"
same,Potency,[6],active: 21.3 µM
same,Potency,[13],"inconclusive: 21.3 µM [falling, partial curve]"
same,Potency,[7],active: 23.9 µM
same,Potency,[8],active: 26.8 µM
same,Potency,[14],"inconclusive: 26.8 µM [cytotoxic, partial curve, poor fit]"
same,Potency,[9],"inconclusive: 26.8 µM [activator, single point]"
same,Potency,[11],"inconclusive: 26.8 µM [activator, single point]"
same,Potency,[15],active: 10.7 µM
